The source of these data is PMC11673900 (Journal of Translational Medicine, 2024).

The assay addresses T1, MBP-tagged NONO (human, UniProt Q15233 1-471).
T1 sequence (looked up): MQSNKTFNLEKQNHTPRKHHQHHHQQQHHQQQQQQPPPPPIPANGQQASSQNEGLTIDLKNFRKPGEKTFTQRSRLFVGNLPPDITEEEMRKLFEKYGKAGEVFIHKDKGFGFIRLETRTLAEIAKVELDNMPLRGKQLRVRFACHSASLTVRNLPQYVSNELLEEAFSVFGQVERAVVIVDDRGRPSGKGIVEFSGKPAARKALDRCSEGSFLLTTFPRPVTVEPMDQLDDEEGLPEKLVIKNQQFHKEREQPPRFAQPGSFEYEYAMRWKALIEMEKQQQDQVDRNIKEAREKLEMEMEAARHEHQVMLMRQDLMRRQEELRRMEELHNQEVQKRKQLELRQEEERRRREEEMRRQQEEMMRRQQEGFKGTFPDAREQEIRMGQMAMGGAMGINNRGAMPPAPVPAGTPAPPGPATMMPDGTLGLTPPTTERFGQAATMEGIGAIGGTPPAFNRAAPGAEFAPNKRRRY
In words: co-IP.

B1: GST-tagged PARP1 catalytic (CAT) domain ([…]) (domain or fragment)
chain: not shown
Regarding B1, the binding result was “binds”.
